Experimental data as given in the supplement of paper PMC11369174, “Proteome-scale characterisation of motif-based interactome rewiring by disease mutations” (Molecular Systems Biology, 2024).
This is one part of the list. This is a noisy data set.

Legend:
Assay in all cases: mutation enrichment score (mutant vs wild-type peptide binding to bait); baits are purified protein domains named by gene / domain / UniProt id / residues; peptides come from disordered regions of human proteins; higher = mutation enhances binding relative to wild type
[1] = biological target: ABL1_SH3__P00519_60_121; conditions: wild-type window: …
Chain of ABL1_SH3__P00519_60_121 (chain, as listed by the source): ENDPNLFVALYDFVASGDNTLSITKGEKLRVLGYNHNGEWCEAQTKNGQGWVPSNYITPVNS

[2] = biological target: DMD_WW-EF__P11532_3055_3088; conditions: number of wild-type / mutant comparisons summed (bounds the score): 6; paper call: no_effect; wild-type window: …
[3] = biological target: EPS8_SH3_1_Q12929_534_598 (clone: EPS8L1_SH3_1_Q12929_534_598); conditions: paper call: no_effect, wild-type window: …
[4] = biological target: NEDD4_WW_2_P46934_765_803; conditions: number of wild-type / mutant comparisons summed (bounds the score): 12; paper call: enhanced; wild-type window: …
Chain of NEDD4_WW_2_P46934_765_803 (chain, as listed by the source): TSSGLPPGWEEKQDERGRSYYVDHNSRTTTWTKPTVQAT

[5] = biological target: WWTR1_WW__Q9GZV5_122_160; conditions: number of wild-type / mutant comparisons summed (bounds the score): 12; paper call: enhanced; wild-type window: …
Chain of WWTR1_WW__Q9GZV5_122_160 (chain, as listed by the source): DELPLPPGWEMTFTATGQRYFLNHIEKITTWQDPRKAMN

[6] = biological target: Intersectin-1_SH3_2_Q15811_913_971; conditions: paper call: no_effect, wild-type window: …
[7] = biological target: NCK1_SH3_1_P16333_5_60; conditions: wild-type window: …
[8] = biological target: Src_SH3__P12931_87_144; conditions: paper call: no_effect, wild-type window: …
[9] = biological target: T1, G3BP2_NTF2_1_Q9UN86_1_139; conditions: number of wild-type / mutant comparisons summed (bounds the score): 6; paper call: no_effect; wild-type window: …
T1 chain: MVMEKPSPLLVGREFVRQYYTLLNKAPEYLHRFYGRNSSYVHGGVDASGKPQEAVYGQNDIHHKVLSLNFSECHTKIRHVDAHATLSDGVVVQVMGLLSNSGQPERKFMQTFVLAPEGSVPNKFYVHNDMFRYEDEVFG

[10] = biological target: T2, AHNAK2_PDZ__Q8IVF2_108_193; conditions: wild-type window: …
T2 chain: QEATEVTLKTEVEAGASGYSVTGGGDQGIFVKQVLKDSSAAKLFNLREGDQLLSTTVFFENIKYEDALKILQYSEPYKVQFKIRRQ

[11] = biological target: USP7_MATH-TRAF__Q93009_53_206; conditions: number of wild-type / mutant comparisons summed (bounds the score): 5; paper call: no_effect; wild-type window: …
Chain of USP7_MATH-TRAF__Q93009_53_206 (chain, as listed by the source): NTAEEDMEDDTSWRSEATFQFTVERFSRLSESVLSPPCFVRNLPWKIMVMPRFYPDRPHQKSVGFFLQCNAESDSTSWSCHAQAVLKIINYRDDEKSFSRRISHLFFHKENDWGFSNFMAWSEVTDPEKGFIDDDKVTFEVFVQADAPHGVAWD

[12] = number of wild-type / mutant comparisons summed (bounds the score): 6, paper call: no_effect
[13] = number of wild-type / mutant comparisons summed (bounds the score): 6
[14] = number of wild-type / mutant comparisons summed (bounds the score): 12, paper call: diminished
[15] = number of wild-type / mutant comparisons summed (bounds the score): 12, paper call: enhanced
[16] = number of wild-type / mutant comparisons summed (bounds the score): 12, paper call: no_effect
[17] = number of wild-type / mutant comparisons summed (bounds the score): 12

Binder: SPPEEPPDFCCPKCQYQAPDVDTLQIHVMECIE [M407V M407V]
- mutation enrichment score [1, 12]: 1.4

Binder: STSSSLAYPPPPSYPSPKPAMDPGLFPMIPDYPGFFPSQCQ [T215M T215M]
- mutation enrichment score [1, 12]: 4.3
- mutation enrichment score [2]: 1.7
- mutation enrichment score [3, 13]: 4.5
- mutation enrichment score [4]: 7.3
- mutation enrichment score [5]: 7.9

Binder: RALKQQKKAQIRANGFKLETAPPMGVPPPPPPAPDYVLPPS [G123A G123A]
- mutation enrichment score [1, 14]: -10
- mutation enrichment score [6, 13]: -4

Binder: SRPAAPSAHPPAHPPPSAAASAPAPSGQPGLMAQMATTAAG [P34S P34S]
- mutation enrichment score [1, 14]: -7.6

Binder: LAPSSCMLAAFKPEAYAGPEVAAPGLPELRAELGRAPSPAK [A61V A61V]
- mutation enrichment score [1, 15]: 7

Binder: RALKQQKKAQIRANGFKLETEPPMGVPPPPPPAPDYVLPPS [G123E G123E]
- mutation enrichment score [1, 16]: -0.87
- mutation enrichment score [6, 13]: 2.8
- mutation enrichment score [7, 12]: 0
- mutation enrichment score [8, 13]: 0

Binder: PAPPPQPPESPPPPPLPPQQHQPAQPGPAASPAGPPAPRGP [Q41H Q41H]
- mutation enrichment score [1, 16]: 3
- mutation enrichment score [8, 13]: -2.7

Binder: RAVSADPLPPPPLPLQPPFGLDFYSSDTEEPAIAPDLKPVR [P59L P59L]
- mutation enrichment score [1, 16]: 2.9
- mutation enrichment score [9]: 3
- mutation enrichment score [7, 12]: 3.8
- mutation enrichment score [8, 13]: 3.9

Binder: AQIRANGFKLETGPPMGVPPLPPPAPDYVLPPSLHGPEPKG [P131L P131L]
- mutation enrichment score ([1]; number of wild-type / mutant comparisons summed (bounds the score): 18, paper call: diminished): -9.9
- mutation enrichment score [3, 17]: 1.3
- mutation enrichment score [6, 17]: -2.8
- mutation enrichment score [7, 14]: -11
- mutation enrichment score [8, 17]: -4

Binder: KKAQIRANGFKLETGPPMGVLPPPPPAPDYVLPPSLHGPEP [P129L P129L]
- mutation enrichment score ([1]; number of wild-type / mutant comparisons summed (bounds the score): 18, paper call: no_effect): -7.1
- mutation enrichment score [3, 13]: 2.6
- mutation enrichment score [6, 17]: -5
- mutation enrichment score [7, 16]: 2.4
- mutation enrichment score [8, 17]: 2.8

Binder: YSNLANCSPNRQKPVVDHSVWINSVGSTASSSQPLLVHDDV [R956W R956W]
- mutation enrichment score [10, 12]: 2
- mutation enrichment score [11]: 2.6

Binder: RREEARNPKRKPRLMEEDELSSWIIKDDAEVERLTCEEEEE [P1344S P1344S]
- mutation enrichment score [10, 12]: 2

Binder: VNENFAIDLIAEQPVSEVETWVIACDGGGGALGHPKVYINL [R83W R83W]
- mutation enrichment score [10, 15]: 11

Binder: GWPGAVAHACNPSTLGGQGGWITRSGVRDQPDQHGLLWNLS [R490W R490W]
- mutation enrichment score ([10]; number of wild-type / mutant comparisons summed (bounds the score): 18, paper call: enhanced): 11
